In article PMC4336329 (PLoS ONE, 2015):
The whole screen tested about 310,000 compounds, of which about 2,200 (0.71%) showed an effect of 50% or more. Effects have a minus sign here. The list shows a part of the results.

Biological target: human ether-à-go-go-related gene (hERG) potassium channel (human, UniProt Q12809)
Assay: primary screen, population patch clamp on CHO cells stably expressing hERG

human ether-à-go-go-related gene (hERG) potassium channel, sequence (Q12809 whole entry, looked up): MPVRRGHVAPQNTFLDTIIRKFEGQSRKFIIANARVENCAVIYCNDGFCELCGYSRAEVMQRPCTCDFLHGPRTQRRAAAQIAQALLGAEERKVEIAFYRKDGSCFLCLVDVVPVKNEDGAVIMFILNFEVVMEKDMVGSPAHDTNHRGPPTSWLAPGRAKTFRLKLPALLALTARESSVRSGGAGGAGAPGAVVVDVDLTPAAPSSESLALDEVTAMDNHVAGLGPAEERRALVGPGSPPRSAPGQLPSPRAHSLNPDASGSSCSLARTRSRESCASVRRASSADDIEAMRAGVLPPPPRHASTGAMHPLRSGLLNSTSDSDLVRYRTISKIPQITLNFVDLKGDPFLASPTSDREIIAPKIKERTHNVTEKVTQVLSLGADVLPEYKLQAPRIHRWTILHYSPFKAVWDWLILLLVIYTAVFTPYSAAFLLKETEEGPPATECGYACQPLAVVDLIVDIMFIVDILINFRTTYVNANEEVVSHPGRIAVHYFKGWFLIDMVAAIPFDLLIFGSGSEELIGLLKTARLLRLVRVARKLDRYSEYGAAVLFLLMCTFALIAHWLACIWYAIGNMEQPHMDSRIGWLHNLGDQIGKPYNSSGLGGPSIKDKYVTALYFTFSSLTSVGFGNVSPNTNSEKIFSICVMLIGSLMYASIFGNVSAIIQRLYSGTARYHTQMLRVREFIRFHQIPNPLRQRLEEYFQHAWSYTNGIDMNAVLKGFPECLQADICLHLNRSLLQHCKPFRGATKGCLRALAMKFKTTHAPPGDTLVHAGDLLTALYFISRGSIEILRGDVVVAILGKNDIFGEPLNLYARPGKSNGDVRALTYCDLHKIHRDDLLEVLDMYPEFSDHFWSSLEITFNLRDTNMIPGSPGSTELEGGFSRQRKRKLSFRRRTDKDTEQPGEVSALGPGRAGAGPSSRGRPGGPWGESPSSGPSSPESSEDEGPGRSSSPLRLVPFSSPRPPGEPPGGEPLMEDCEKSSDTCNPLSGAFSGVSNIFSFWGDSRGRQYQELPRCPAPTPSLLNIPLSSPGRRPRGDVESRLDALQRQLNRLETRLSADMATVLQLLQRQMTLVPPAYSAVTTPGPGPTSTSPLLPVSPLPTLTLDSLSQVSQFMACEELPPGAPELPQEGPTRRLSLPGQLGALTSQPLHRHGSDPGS

| SMILES | hERG current change (%, negative = inhibition) at 1uM [%] |
| --- | --- |
| O=C(c1c(Cl)cccc1Cl)N1CCN(c2ccccn2)CC1 | -8.02 |
| O=C1CC(C(=O)Nc2ccc(F)cc2)n2cnnc2N1 (stereo not drawn) | -0.0673 |
| CC(=O)c1cnn(-c2c(Cl)cc(Cl)cc2Cl)c1C | 7.75 |
| CC1CCCCC1NC(=O)CCCn1c(=S)[nH]c2ccsc2c1=O (stereo not drawn) | 22.6 |
| COc1ccccc1CNC(=O)CCNS(=O)(=O)c1cc(Br)cnc1N | -2.62 |
| CCN(CC)C(=O)CSc1nc2c(sc(=S)n2Cc2ccco2)c(=O)n1-c1ccccc1 | 5.26 |
| Cc1cc(C)c2c(CC(=O)NC(C)C)coc2c1 | 12 |
| CC(=O)Nc1nc(NCc2ccccc2Cl)n(-c2ccccc2)n1 | 13.7 |
| COC(=O)c1sc2nc(C)nc(SCC(=O)C(C)(C)C)c2c1C | 16 |
| CCOc1ccc(-c2cc(C(=O)NN=C3CCN(C)CC3)[nH]n2)cc1 | 7.5 |
| Cc1ccc(C(=O)NC(=S)NNC(=O)COc2ccc([N+](=O)[O-])cc2)cc1 | 13.9 |
| O=C(NCCc1ccncc1)Nc1ccccc1Cl | 5.83 |
| Nc1ccn(CC(=O)N[C@H](CO)Cc2c[nH]c3ccccc23)c(=O)n1 | 23.4 |
| Cc1nn(C)cc1C(C)NC(=O)c1cc(COc2cccc3cnccc23)on1 (stereo not drawn) | 17.1 |
| Brc1ccc(-c2nnc(Cc3ccccc3)o2)cc1 | 4.56 |
| COc1cccc(NC(=O)CSc2ccccn2)c1 | 0.305 |
| COc1ccc(Nc2sc(C(=O)c3ccc(Cl)cc3)c(N)c2C(=O)Nc2ccccc2OC)cc1 | -8.63 |
| Cc1cc(NC(=O)C(C)SCC(=O)Nc2nc3c(F)cc(F)cc3s2)no1 (stereo not drawn) | 7.71 |
| COc1ccc2nc(NC(=O)c3ccco3)sc2c1 | 3.68 |
| O=C(CS(=O)CC(=O)Nc1cccc2c1CCCC2)Nc1ccc(F)cc1 (stereo not drawn) | 19.8 |
| Cc1nc(NCCCO)c(C#N)c2c1COC(C)(C)C2 | -7.86 |
| Cc1ncoc1C(=O)N1CCCC(C(=O)c2cccc3ccccc23)C1 (stereo not drawn) | 9.25 |
| CC(N=Cc1cccc(O)c1O)c1ccccc1 (stereo not drawn) | 4.71 |

| SMILES | hERG current change (%, negative = inhibition) at 1uM [%] |
| --- | --- |
| S=c1[nH]nc(-c2ccco2)n1/N=C/c1c(Cl)cccc1Cl | 1.31 |
| CCOc1ccc(N(Cc2ccc(OC)cc2)C(=O)c2ccco2)cc1 | 12.2 |
| Cc1ccc(C(C(=O)NC2CCCCC2)N2CCOCC2)cc1 (stereo not drawn) | 8.13 |
| O=C(CNC(=O)/C(=C\c1ccc(F)cc1)NC(=O)c1ccccc1)OCc1ccccc1 | -69 |
| COc1ccc(N2CCN(C(=O)c3oc4ccccc4c3NC(=O)Cc3ccc(OC)c(OC)c3)CC2)cc1 | 8.68 |
| COc1cccc(NC(=O)CN(C)C(=O)c2ccccc2-c2nc3ccccc3s2)c1 | -1.78 |
| CN(CC(=O)Nc1cccc2c1CCCC2)S(=O)(=O)c1ccc(Br)cc1 | 3.76 |
| Cc1c(CCO)sc[n+]1CC(=O)OCCC12CC3CC(CC(C3)C1)C2.[Cl-] | 5.19 |
| O=c1c2ccc(Cl)cc2[nH]c(=S)n1-c1cccnc1 | 16.9 |
| CNc1ncnc2c1ncn2[C@@H]1O[C@H](CO)[C@@H](O)[C@H]1O | 14 |
| CCc1ccc(CN(C(=O)c2ccco2)C2CCS(=O)(=O)C2)cc1 (stereo not drawn) | 4.18 |
| Cc1cc(C(=O)O)c(S(C)(=O)=O)s1 | 10 |
| COc1ccc(-n2ccnc(SCC(=O)NCc3ccc(C)cc3)c2=O)cc1Cl | 3.45 |
| CN1c2ccccc2Sc2cc(N)ccc21 | 10.1 |
| O=C(CSc1nc2cc3ccccc3cc2[nH]1)Nc1ccc(F)cc1 | 5.08 |
| CS(=O)(=O)N(CC(=O)N1CCN(c2ccc(F)cc2)CC1)c1ccc(F)c(Cl)c1 | -16 |
| CCc1nc(CN2CCN(c3ccc(C(F)(F)F)cn3)CC2)c(C)[nH]1 | -29.6 |
| CCN1CCN(C(=O)CN(c2ccc(C)cc2)S(C)(=O)=O)CC1 | 13.4 |
| O=C(NC1CCS(=O)(=O)C1)c1ccc(S(=O)(=O)NCC2CCCO2)cc1 (stereo not drawn) | -1.85 |
| CCOC(=O)c1ccc[n+](CC(=O)c2ccccc2)c1.[Br-] | 8.09 |
| Nc1ccc(S(=O)(=O)NNC(=O)C(=O)NNc2ccccn2)cc1 | 7.29 |
| COC(=O)c1cccnc1NC(=S)NNC(=O)c1ccncc1 | 5.32 |
